Results taken from publication PMC9911399, “Two distinct binding modes provide the RNA-binding protein RbFox with extraordinary sequence specificity”.
Changes are numbered by the printed parent chain; changes in the protein carry UniProt numbers. This is one part of the list.

T1: RBFOX1 RRM RbFoxmut (Fox-RRM*) (Homo sapiens, UniProt Q9NWB1 109-208, R118D;E147R;N151S;E152T)
T1 sequence: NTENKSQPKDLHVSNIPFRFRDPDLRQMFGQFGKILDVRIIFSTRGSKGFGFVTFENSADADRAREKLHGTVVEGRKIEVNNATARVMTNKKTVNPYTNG

B1: UGAUUCC (DNA:RNA)
RNA: GGGAGACCGGAAUUCAGAUUGUCCUGAUUCCUUAAAUCCCGUCGUAGCCACCA
DNA 1: CAATCTGAATTCCGGTCTCCC
DNA 2: TGGTGGCTACGACGGGATT
B2: UGCAAGG (DNA:RNA)
RNA: B1 RNA with A27C, U28A, U29A, C30G, C31G
DNA 1: CAATCTGAATTCCGGTCTCCC
DNA 2: TGGTGGCTACGACGGGATT
B3: CGUAUCU (DNA:RNA)
RNA: B1 RNA with U25C, A27U, U28A, C31U
DNA 1: CAATCTGAATTCCGGTCTCCC
DNA 2: TGGTGGCTACGACGGGATT
B4: AAAGGUG (DNA:RNA)
RNA: B1 RNA with U25A, G26A, U28G, U29G, C30U, C31G
DNA 1: CAATCTGAATTCCGGTCTCCC
DNA 2: TGGTGGCTACGACGGGATT
B5: UUACGCA (DNA:RNA)
RNA: B1 RNA with G26U, U28C, U29G, C31A
DNA 1: CAATCTGAATTCCGGTCTCCC
DNA 2: TGGTGGCTACGACGGGATT
B6: GCAGAAU (DNA:RNA)
RNA: B1 RNA with U25G, G26C, U28G, U29A, C30A, C31U
DNA 1: CAATCTGAATTCCGGTCTCCC
DNA 2: TGGTGGCTACGACGGGATT
B7: AAACGGC (DNA:RNA)
RNA: B1 RNA with U25A, G26A, U28C, U29G, C30G
DNA 1: CAATCTGAATTCCGGTCTCCC
DNA 2: TGGTGGCTACGACGGGATT
B8: CUCCAUA (DNA:RNA)
RNA: GGGAGACCGGAAUUCAGAUUGUCCCUCCAUAUUAAAUCCCGUCGUAGCCACCA
DNA 1: CAATCTGAATTCCGGTCTCCC
DNA 2: TGGTGGCTACGACGGGATT
B9: GAGCUCA (DNA:RNA)
RNA: B8 RNA with C25G, U26A, C27G, A29U, U30C
DNA 1: CAATCTGAATTCCGGTCTCCC
DNA 2: TGGTGGCTACGACGGGATT
B10: AAUCGUG (DNA:RNA)
RNA: B8 RNA with C25A, U26A, C27U, A29G, A31G
DNA 1: CAATCTGAATTCCGGTCTCCC
DNA 2: TGGTGGCTACGACGGGATT
B11: CUGUCGA (DNA:RNA)
RNA: B8 RNA with C27G, C28U, A29C, U30G
DNA 1: CAATCTGAATTCCGGTCTCCC
DNA 2: TGGTGGCTACGACGGGATT
B12: AUAGGCU (DNA:RNA)
RNA: B1 RNA with U25A, G26U, U28G, U29G, C31U
DNA 1: CAATCTGAATTCCGGTCTCCC
DNA 2: TGGTGGCTACGACGGGATT
B13: AGGCUUC (DNA:RNA)
RNA: B1 RNA with U25A, A27G, U28C, C30U
DNA 1: CAATCTGAATTCCGGTCTCCC
DNA 2: TGGTGGCTACGACGGGATT
B14: UCCAUAA (DNA:RNA)
RNA: B8 RNA with C25U, U26C, C28A, A29U, U30A
DNA 1: CAATCTGAATTCCGGTCTCCC
DNA 2: TGGTGGCTACGACGGGATT
B15: CAGUGAU (DNA:RNA)
RNA: B8 RNA with U26A, C27G, C28U, A29G, U30A, A31U
DNA 1: CAATCTGAATTCCGGTCTCCC
DNA 2: TGGTGGCTACGACGGGATT
B16: GGAAAGG (DNA:RNA)
RNA: B1 RNA with U25G, U28A, U29A, C30G, C31G
DNA 1: CAATCTGAATTCCGGTCTCCC
DNA 2: TGGTGGCTACGACGGGATT
B17: GCAGGAG (DNA:RNA)
RNA: B1 RNA with U25G, G26C, U28G, U29G, C30A, C31G
DNA 1: CAATCTGAATTCCGGTCTCCC
DNA 2: TGGTGGCTACGACGGGATT
B18: AAGGUAG (DNA:RNA)
RNA: B1 RNA with U25A, G26A, A27G, U28G, C30A, C31G
DNA 1: CAATCTGAATTCCGGTCTCCC
DNA 2: TGGTGGCTACGACGGGATT
B19: AUCGACU (DNA:RNA)
RNA: B8 RNA with C25A, C28G, U30C, A31U
DNA 1: CAATCTGAATTCCGGTCTCCC
DNA 2: TGGTGGCTACGACGGGATT
B20: UGGGUUC (DNA:RNA)
RNA: B1 RNA with A27G, U28G, C30U
DNA 1: CAATCTGAATTCCGGTCTCCC
DNA 2: TGGTGGCTACGACGGGATT
B21: AAGAUUC (DNA:RNA)
RNA: B1 RNA with U25A, G26A, A27G, U28A, C30U
DNA 1: CAATCTGAATTCCGGTCTCCC
DNA 2: TGGTGGCTACGACGGGATT
B22: ACUGAAC (DNA:RNA)
RNA: B8 RNA with C25A, U26C, C27U, C28G, U30A, A31C
DNA 1: CAATCTGAATTCCGGTCTCCC
DNA 2: TGGTGGCTACGACGGGATT
B23: UUAGUAC (DNA:RNA)
RNA: B1 RNA with G26U, U28G, C30A
DNA 1: CAATCTGAATTCCGGTCTCCC
DNA 2: TGGTGGCTACGACGGGATT
B24: AUUCAGU (DNA:RNA)
RNA: B8 RNA with C25A, C27U, U30G, A31U
DNA 1: CAATCTGAATTCCGGTCTCCC
DNA 2: TGGTGGCTACGACGGGATT
B25: AUGUGGU (DNA:RNA)
RNA: B8 RNA with C25A, C27G, C28U, A29G, U30G, A31U
DNA 1: CAATCTGAATTCCGGTCTCCC
DNA 2: TGGTGGCTACGACGGGATT
B26: UCAUCUA (DNA:RNA)
RNA: B1 RNA with G26C, U29C, C30U, C31A
DNA 1: CAATCTGAATTCCGGTCTCCC
DNA 2: TGGTGGCTACGACGGGATT
B27: CCAAACU (DNA:RNA)
RNA: B8 RNA with U26C, C27A, C28A, U30C, A31U
DNA 1: CAATCTGAATTCCGGTCTCCC
DNA 2: TGGTGGCTACGACGGGATT
B28: GCUACCC (DNA:RNA)
RNA: B1 RNA with U25G, G26C, A27U, U28A, U29C
DNA 1: CAATCTGAATTCCGGTCTCCC
DNA 2: TGGTGGCTACGACGGGATT
B29: GUUUGAA (DNA:RNA)
RNA: B8 RNA with C25G, C27U, C28U, A29G, U30A
DNA 1: CAATCTGAATTCCGGTCTCCC
DNA 2: TGGTGGCTACGACGGGATT
B30: CUUUGGG (DNA:RNA)
RNA: B8 RNA with C27U, C28U, A29G, U30G, A31G
DNA 1: CAATCTGAATTCCGGTCTCCC
DNA 2: TGGTGGCTACGACGGGATT
B31: CAACCGC (DNA:RNA)
RNA: B8 RNA with U26A, C27A, A29C, U30G, A31C
DNA 1: CAATCTGAATTCCGGTCTCCC
DNA 2: TGGTGGCTACGACGGGATT

Molecular target: T1, RBFOX1 RRM RbFoxmut (Fox-RRM*)
Assay: EMSA; HiTS-Eq, 1 nM pool, 10 min; buffer printed only for the single-RNA assays: 10 mM Tris pH 7.5, 150 mM NaCl, 3.4 mM EDTA, 0.001% NP-40, 30 C
Settings: tags: His6 N-terminal (pET28a); label: 5' 32P
How it was run: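 Purified RbFox RRM (wild type or mutant) was equilibrated for 10 min in 50 µL with 1 nM of a 5′-radiolabelled pool of RNA with 7 randomized nucleotides, its flanks annealed to DNA oligonucleotides, across increasing protein concentrations. Free RNA was separated by 8% native PAGE, excised, reverse-transcribed, PCR-barcoded and sequenced on an Illumina HiSeq 2500. Relative association constants came from read-count changes of each variant against the control reaction, normalised to the cognate motif.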

| Binder | binding signal |
| --- | --- |
| B1 | 0.0628 KA relative to UGCAUGU |
| B2 | 0.0807 KA relative to UGCAUGU |
| B3 | 0.125 KA relative to UGCAUGU |
| B4 | 0.104 KA relative to UGCAUGU |
| B5 | 0.13 KA relative to UGCAUGU |
| B6 | 0.148 KA relative to UGCAUGU |
| B7 | 0.085 KA relative to UGCAUGU |
| B8 | 0.103 KA relative to UGCAUGU |
| B9 | 0.0778 KA relative to UGCAUGU |
| B10 | 0.0974 KA relative to UGCAUGU |
| B11 | 0.0775 KA relative to UGCAUGU |
| B12 | 0.103 KA relative to UGCAUGU |
| B13 | 0.111 KA relative to UGCAUGU |
| B14 | 0.0804 KA relative to UGCAUGU |
| B15 | 0.0883 KA relative to UGCAUGU |
| B16 | 0.0622 KA relative to UGCAUGU |

| Binder | binding signal |
| --- | --- |
| B17 | 0.0994 KA relative to UGCAUGU |
| B18 | 0.144 KA relative to UGCAUGU |
| B19 | 0.0688 KA relative to UGCAUGU |
| B20 | 0.177 KA relative to UGCAUGU |
| B21 | 0.11 KA relative to UGCAUGU |
| B22 | 0.0674 KA relative to UGCAUGU |
| B23 | 0.102 KA relative to UGCAUGU |
| B24 | 0.0935 KA relative to UGCAUGU |
| B25 | 0.16 KA relative to UGCAUGU |
| B26 | 0.109 KA relative to UGCAUGU |
| B27 | 0.0717 KA relative to UGCAUGU |
| B28 | 0.0702 KA relative to UGCAUGU |
| B29 | 0.184 KA relative to UGCAUGU |
| B30 | 0.0641 KA relative to UGCAUGU |
| B31 | 0.0715 KA relative to UGCAUGU |
